Here are results for 97 variants from a collection of fitness landscapes (doi:10.1016/j.celrep.2020.107928).

The full ranking holds about 81,000 sequences; the median of “one-hybrid fitness for binding NBS DNA” is about -0.1, and the highest 2% start at about 0.36. Some of the results follow.

B1: Caulobacter ParB omega fusion; a variant is named by its letters at X, in order, B8GW30 (parent)
chain: MESVVVGEPGMSEGRRGLGRGLSALLGEVDAAPAQAPGEQLGGSREAPIEILQRNPDQPRRTFREEDLEDLSNSIREKGVLQPILVRPSPDTAGEYQIVAGERAWRAAQRAGLKTVPIMVRELDDLAVLEIGIIENVQRADLNVLEEALSYKVLMEKFERTQENIAQTIGKSXSHVANXMRLLXLPDEVQSYLVSGELTAXHARAIAAAADPVALAKQIIEGGLSVRETEALARKAPNLSAGKSKGGRPPRVKDTDTQALESDLSSVLGLDVSIDHRGSTGTLTITYATLEQLDDLCNRLTRGI

In this experiment the parent is B1. The experiment can be described thus: one-hybrid fitness for binding NBS DNA (the Noc-binding site; scaled: cognate 1, non-cognate 0); higher = stronger binding. Particulars: with NBS DNA site. The procedure, abridged: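 In E. coli USO, a HIS3 reporter with its site placed 19 bp from the promoter was used to select Caulobacter ParB variants randomised at four specificity codons. Growth lasted 48 hours at 37°C on histidine-free M9 containing 0.1 mM IPTG and 5 mM 3-AT. Fitness was taken as the log change in variant-to-wild-type read ratio from Illumina sequencing of pre- and post-selection plasmids, rescaled between the non-cognate and cognate sites.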
For AGIK, the “one-hybrid fitness for binding NBS DNA” value is not above 0.2. Take PNWL: the “one-hybrid fitness for binding NBS DNA” value is not above 0.2. As to HHPW, the “one-hybrid fitness for binding NBS DNA” value was not above 0.2.

Regarding NQRT, the “one-hybrid fitness for binding NBS DNA” value was not above 0.2. Regarding QMIF, the “one-hybrid fitness for binding NBS DNA” value is not above 0.2. On to GQGI, for which the “one-hybrid fitness for binding NBS DNA” value is not above 0.2. As to GKCN, the “one-hybrid fitness for binding NBS DNA” value is not above 0.2. For WIAT, the “one-hybrid fitness for binding NBS DNA” value was not above 0.2.

For the variant DFTV, the “one-hybrid fitness for binding NBS DNA” value is not above 0.2. Take QQMT: the “one-hybrid fitness for binding NBS DNA” value is 0.499. ASDF: the “one-hybrid fitness for binding NBS DNA” value was not above 0.2. As for NASF, the “one-hybrid fitness for binding NBS DNA” value is not above 0.2. For the variant LRTI, the “one-hybrid fitness for binding NBS DNA” value was not above 0.2. For ECLR, the “one-hybrid fitness for binding NBS DNA” value was not above 0.2. Turning to RSVS, the “one-hybrid fitness for binding NBS DNA” value worked out at 0.285. ALKA: the “one-hybrid fitness for binding NBS DNA” value was not above 0.2. In the case of AQIG, the “one-hybrid fitness for binding NBS DNA” value is not above 0.2. For the variant MMKS, the “one-hybrid fitness for binding NBS DNA” value is not above 0.2. For IPMV, the “one-hybrid fitness for binding NBS DNA” value was not above 0.2. DKEG: the “one-hybrid fitness for binding NBS DNA” value is not above 0.2. On to QPIF, for which the “one-hybrid fitness for binding NBS DNA” value is not above 0.2. Under TVSV stands not above 0.2; under RTGN, not above 0.2. As for RGLW, the “one-hybrid fitness for binding NBS DNA” value was not above 0.2. As for EYRF, the “one-hybrid fitness for binding NBS DNA” value is not above 0.2. For the variant KVWR, the “one-hybrid fitness for binding NBS DNA” value was not above 0.2. Take RIDH: the “one-hybrid fitness for binding NBS DNA” value was not above 0.2. As for AFAH, the “one-hybrid fitness for binding NBS DNA” value was not above 0.2. For SPVM, the “one-hybrid fitness for binding NBS DNA” value is not above 0.2. Take HPSG: the “one-hybrid fitness for binding NBS DNA” value was not above 0.2.

As for SRPH, the “one-hybrid fitness for binding NBS DNA” value was not above 0.2. CRHS: the “one-hybrid fitness for binding NBS DNA” value was not above 0.2. As for KAMG, the “one-hybrid fitness for binding NBS DNA” value is not above 0.2. The figure for DHGT is not above 0.2. FSIV: the “one-hybrid fitness for binding NBS DNA” value is not above 0.2. Turning to LWAV, the “one-hybrid fitness for binding NBS DNA” value was not above 0.2. As for IWRI, the “one-hybrid fitness for binding NBS DNA” value is not above 0.2. Under ASKG stands not above 0.2; under HQTI, not above 0.2; under YRGR, not above 0.2.

As to CSTL, the “one-hybrid fitness for binding NBS DNA” value was not above 0.2. The figure for TTDC is not above 0.2; for QKGS it is 0.465; for KETG it is not above 0.2.

In the case of YYYT, the “one-hybrid fitness for binding NBS DNA” value was not above 0.2. On to IRGM, for which the “one-hybrid fitness for binding NBS DNA” value is not above 0.2.

Regarding NPLN, the “one-hybrid fitness for binding NBS DNA” value is not above 0.2.

Take RWDP: the “one-hybrid fitness for binding NBS DNA” value was not above 0.2. As for QVAG, the “one-hybrid fitness for binding NBS DNA” value was not above 0.2.

On to DAHT, for which the “one-hybrid fitness for binding NBS DNA” value was not above 0.2. Regarding LLPE, the “one-hybrid fitness for binding NBS DNA” value was not above 0.2.

In the case of NSQW, the “one-hybrid fitness for binding NBS DNA” value is not above 0.2. In the case of KVPG, the “one-hybrid fitness for binding NBS DNA” value is not above 0.2. Under CTKM stands not above 0.2; under WCES, not above 0.2. With SLYV, the “one-hybrid fitness for binding NBS DNA” value was not above 0.2.

Consider DPSF, for which the “one-hybrid fitness for binding NBS DNA” value was not above 0.2. The figure for TCDL is not above 0.2.

For GITA, the “one-hybrid fitness for binding NBS DNA” value was not above 0.2.

On to HHAC, for which the “one-hybrid fitness for binding NBS DNA” value is not above 0.2.

Turning to ARCG, the “one-hybrid fitness for binding NBS DNA” value was not above 0.2.

Turning to GTTH, the “one-hybrid fitness for binding NBS DNA” value was not above 0.2. For the variant CGVM, the “one-hybrid fitness for binding NBS DNA” value was not above 0.2. The figure for SQYE is not above 0.2. The figure for KSRW is not above 0.2; for AQLG it is not above 0.2. The figure for YSPK is not above 0.2. On to HFRR, for which the “one-hybrid fitness for binding NBS DNA” value was not above 0.2. As for PYNC, the “one-hybrid fitness for binding NBS DNA” value is not above 0.2. For the variant KRNL, the “one-hybrid fitness for binding NBS DNA” value was not above 0.2. Regarding RRRY, the “one-hybrid fitness for binding NBS DNA” value was found to be 0.798. Turning to WDGA, the “one-hybrid fitness for binding NBS DNA” value is not above 0.2. Consider DYKA, for which the “one-hybrid fitness for binding NBS DNA” value is not above 0.2. As to ILKG, the “one-hybrid fitness for binding NBS DNA” value is not above 0.2. RSEK: the “one-hybrid fitness for binding NBS DNA” value was not above 0.2. Take KFLW: the “one-hybrid fitness for binding NBS DNA” value is not above 0.2. For RGPF, the “one-hybrid fitness for binding NBS DNA” value was not above 0.2. For PSGY, the “one-hybrid fitness for binding NBS DNA” value was not above 0.2. For MPIP, the “one-hybrid fitness for binding NBS DNA” value is not above 0.2. Under LLSS stands not above 0.2. Under HEIG stands not above 0.2.

As for RAYS, the “one-hybrid fitness for binding NBS DNA” value is 0.423.

For the variant LTGA, the “one-hybrid fitness for binding NBS DNA” value is not above 0.2. Take CQFT: the “one-hybrid fitness for binding NBS DNA” value was not above 0.2. Under HKRG stands not above 0.2.

YNDS: the “one-hybrid fitness for binding NBS DNA” value is not above 0.2. The figure for GYKA is not above 0.2; for RQAY it is not above 0.2. On to SDKT, for which the “one-hybrid fitness for binding NBS DNA” value was not above 0.2. On to GAWC, for which the “one-hybrid fitness for binding NBS DNA” value was not above 0.2. For the variant MVYR, the “one-hybrid fitness for binding NBS DNA” value is not above 0.2. Turning to PNIV, the “one-hybrid fitness for binding NBS DNA” value is not above 0.2. On to PPAA, for which the “one-hybrid fitness for binding NBS DNA” value is not above 0.2. Consider RFWM, for which the “one-hybrid fitness for binding NBS DNA” value is not above 0.2. For WQPT, the “one-hybrid fitness for binding NBS DNA” value is not above 0.2. For GGNL, the “one-hybrid fitness for binding NBS DNA” value was not above 0.2. The figure for WHPF is not above 0.2.
